# PubChem BioAssay AID485294 (National Center for Advancing Translational Sciences (NCATS), 2010)
# Among all 370,000 compounds or so, about 150 (0.041%) were called active. The inconclusive results got no clear call from the source; some entries with a clear call stand among them for comparison. Calls follow the shape of the dose curve; as a rule, active = well fitted inhibition curve with a large enough effect; inconclusive = small, poorly fitted or top-dose-only effect; inactive = flat fitted curve, though single readings scatter. Potencies of inconclusive entries are left out as doubtful fits.
# Target: Beta-lactamase (Escherichia coli (strain K12)) (UniProt P00811)
# Experiment: qHTS Inhibitors of AmpC Beta-Lactamase (assay with detergent); also: nearly all actives have a fitted effect of over 25% in size
# Details: AmpC hydrolysis of nitrocefin, absorbance 480 nm, 0.01% Triton; series mostly up to 114 µM
# Summary of the method: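 AmpC (5.3 nM in the dispensed reagent) in 20 mM phosphate pH 7.0 with 0.01% (detergent screen) or 0.0001% Triton X-100 was preincubated with compounds for 15 min at room temperature. Nitrocefin was then added from an 800 uM solution, and hydrolysis was followed at 480 nm.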
# Potency is read from the fitted curve at half-maximal effect; tags tell the direction and shape of the fitted curve.
# Chain of UniProt P00811 (P00811 whole entry, looked up): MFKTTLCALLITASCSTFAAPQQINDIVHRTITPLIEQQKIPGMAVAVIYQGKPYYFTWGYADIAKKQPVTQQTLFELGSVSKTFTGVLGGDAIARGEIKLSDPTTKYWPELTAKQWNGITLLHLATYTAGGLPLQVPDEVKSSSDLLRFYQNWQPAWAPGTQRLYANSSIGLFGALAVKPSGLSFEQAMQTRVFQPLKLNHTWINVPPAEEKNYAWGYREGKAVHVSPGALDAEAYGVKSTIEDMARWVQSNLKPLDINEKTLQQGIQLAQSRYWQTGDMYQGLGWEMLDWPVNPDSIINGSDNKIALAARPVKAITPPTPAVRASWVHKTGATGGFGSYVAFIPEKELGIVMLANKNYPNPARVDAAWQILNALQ
row,Compound,Potency
1,O=C1CC(Sc2ncccn2)C(=O)N1c1ccccc1C(F)(F)F (centres undefined),"inconclusive [inhibitor, partial curve]"
2,CC(NC(=S)NCCCN1CCOCC1)C12CC3CC(CC(C3)C1)C2 (centres undefined),inactive
3,Cc1nnc(SCC(=O)N2CCN(c3ccccc3F)CC2)n1C1CC1,"inconclusive [inhibitor, full curve]"
4,O=C(CN1C(=O)CCSc2ccc(S(=O)(=O)N3CCCC3)cc21)Nc1cccc(F)c1,inactive
5,CNC(=O)NNC(=O)c1nc(-c2ccccc2)c(C)o1,inactive
6,Cc1cc(C)nc(NS(=O)(=O)c2ccc(NC(=O)C(C)C)cc2)n1,"inconclusive [inhibitor, full curve, poor fit]"
7,COc1cccc(CNC(=O)CNC(=S)N(Cc2ccccc2)Cc2ccccc2F)c1,"inconclusive [inhibitor, partial curve]"
8,COc1ccc(NC(=O)CSc2nnc(-c3cccs3)n2N)c(OC)c1,"inconclusive [inhibitor, partial curve, poor fit]"
9,COc1ccccc1NS(=O)(=O)c1cccc(C(=O)NCC(c2ccco2)N2CCCCC2)c1 (centres undefined),"inconclusive [inhibitor, single point]"
10,Cc1ccc(N2C(=O)C3C4C=CC(CC4)C3C2=O)cc1[N+](=O)[O-] (centres undefined),"inconclusive [inhibitor, single point]"
11,COc1ccc(-c2nc3cc(NC(=O)COc4ccccc4C)ccc3o2)cc1,inactive
12,Clc1ccc2nc3ccccn3c2c1,"inconclusive [inhibitor, full curve, poor fit]"
13,CC(/C=C/c1ccc2c(c1)OCO2)=N/NC(=O)c1cccnc1,"inconclusive [inhibitor, full curve, poor fit]"
14,Cc1ccc(CN2CCN(Cc3ccc4cc(F)ccc4n3)CC2CCO)o1 (centres undefined),inactive
15,CCc1cccc(C)c1NC(=O)CSc1nc2ccccc2nc1Cc1ccccc1,inactive
16,Cc1ccc(NC(=O)c2oc3ccc(S(=O)(=O)N4CCC5(CC4)OCCO5)cc3c2C)cc1Cl,inactive
17,COc1ccc(-c2cnn3c(N)c(S(=O)(=O)c4ccccc4)cnc23)cc1,inactive
18,CC(C)(O)C#Cc1ccc(C(=O)N2CCN(C(=O)c3ccco3)CC2)cc1,"inconclusive [inhibitor, partial curve]"
19,N#Cc1ccc(OCC(=O)Nc2cccc(S(=O)(=O)NC3=NCCCCC3)c2)cc1,inactive
20,CCOC(=O)c1c(C)n(Cc2ccccc2)c2ccc(OCC(O)Cn3nc(C)nc3C)cc12 (centres undefined),"inconclusive [inhibitor, full curve, poor fit]"
21,CCOC(=O)C1CCCN(C(=O)c2ccccc2Oc2ccccc2)C1 (centres undefined),"inconclusive [inhibitor, full curve, poor fit]"
22,CC(C)(C)OC(=O)N1CCC(c2c(C(=O)N3CCN(Cc4ccccc4)CC3)cnn2-c2cccc(Cl)c2)CC1,inactive

row,Compound,Potency
1,COc1ccc(Cn2c(CO)cnc2SCc2ccc(C)cc2)cc1,inactive
2,N#Cc1cc(-c2ccccc2)nnc1Oc1ccccc1Cl,"inconclusive [inhibitor, single point]"
3,CCOCCCNC(=O)c1ccc2c(c1)ncn2-c1ccccc1OC,"inconclusive [inhibitor, single point]"
4,COc1cc2nc(SCC(=O)NCCc3ccccc3)n(Cc3ccco3)c(=O)c2cc1OC,"inconclusive [inhibitor, full curve, poor fit]"
5,Cc1ccc(-c2onc(C)c2C)cc1S(=O)(=O)Nc1ccccn1,"inconclusive [inhibitor, single point]"
6,Cc1ccc(NC(=O)Nc2ccccc2C(=O)NCc2ccccc2)cc1,"inconclusive [inhibitor, full curve]"
7,COc1ccc2c(C)c(CC(=O)NCc3ccccc3Cl)c(=O)oc2c1OC,inactive
8,Cc1ccc(CN2C(=O)C(CC(C)C)Nc3ncnc(N4CCN(c5ccccn5)CC4)c32)cc1 (centres undefined),inactive
9,COC(=O)C1=C(CSCc2ccco2)NC(=O)NC1c1cc(C)ccc1C (centres undefined),"inconclusive [inhibitor, single point]"
10,O=C1C(Cl)=C(N2CCCC2)C(=O)N1c1ccc(F)cc1,"inconclusive [inhibitor, full curve, poor fit]"
11,FC(F)(F)c1ccc(NC2=NCCCS2)cc1,"inconclusive [inhibitor, full curve, poor fit]"
12,CCCCn1c(SCC(=O)Nc2nccs2)nc2ccccc2c1=O,"inconclusive [inhibitor, single point]"
13,CN1/C(=C/c2cccc[n+]2C)Sc2ccccc21,inactive
14,Cc1ccc(S(=O)(=O)N(Cc2c(F)cccc2Cl)C(=O)N2CCN(C)CC2)cc1,"inconclusive [inhibitor, single point]"
15,COc1ccc(CNC(=O)C2CCN(S(=O)(=O)c3cc(OC)ccc3OC)CC2)cc1,"inconclusive [inhibitor, full curve, poor fit]"
16,Nc1ccccc1C(=O)NC12CC3CC(CC(C3)C1)C2,"inconclusive [inhibitor, full curve, poor fit]"
17,CCCCOc1ccc(C(=O)NCC(=O)NCCOc2ccccc2)cc1,"inconclusive [inhibitor, full curve, poor fit]"
18,CCOCCCNC(=O)C(c1ccc(C)cc1)N1CCOCC1 (centres undefined),"inconclusive [inhibitor, full curve, poor fit]"
19,Cc1cc(C)nc(NS(=O)(=O)c2ccc(NC(=S)NC(=O)c3cccnc3)cc2)n1,inactive
20,COc1ccccc1CNC(=O)Cn1cc2c(n1)-c1c(oc(C(=O)N3CCOCC3)c1C)CC2,"inconclusive [inhibitor, single point]"
21,COc1ccc(CC(CN)c2ccccc2)cc1 (centres undefined),"inconclusive [inhibitor, full curve, poor fit]"
22,CC(OC(=O)c1cc(Br)ccc1O)C(=O)NCc1ccc2c(c1)OCO2 (centres undefined),"inconclusive [inhibitor, full curve, poor fit]"
